The source of these data is PMC4336329 (PLoS ONE, 2015).

Each structure is given as a SMILES string. The whole screen tested about 310,000 compounds, of which about 14,000 (4.5%) showed an effect of 50% or more. Effects have a minus sign here. The list shows a part of the results.
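Further: peak tail current of the secondary pulse compared with the same well before compound.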

The assay deals with human ether-à-go-go-related gene (hERG) potassium channel (human, UniProt Q12809). The experiment in a line: primary screen, population patch clamp on CHO cells stably expressing hERG.
Chain of human ether-à-go-go-related gene (hERG) potassium channel (Q12809 whole entry, looked up): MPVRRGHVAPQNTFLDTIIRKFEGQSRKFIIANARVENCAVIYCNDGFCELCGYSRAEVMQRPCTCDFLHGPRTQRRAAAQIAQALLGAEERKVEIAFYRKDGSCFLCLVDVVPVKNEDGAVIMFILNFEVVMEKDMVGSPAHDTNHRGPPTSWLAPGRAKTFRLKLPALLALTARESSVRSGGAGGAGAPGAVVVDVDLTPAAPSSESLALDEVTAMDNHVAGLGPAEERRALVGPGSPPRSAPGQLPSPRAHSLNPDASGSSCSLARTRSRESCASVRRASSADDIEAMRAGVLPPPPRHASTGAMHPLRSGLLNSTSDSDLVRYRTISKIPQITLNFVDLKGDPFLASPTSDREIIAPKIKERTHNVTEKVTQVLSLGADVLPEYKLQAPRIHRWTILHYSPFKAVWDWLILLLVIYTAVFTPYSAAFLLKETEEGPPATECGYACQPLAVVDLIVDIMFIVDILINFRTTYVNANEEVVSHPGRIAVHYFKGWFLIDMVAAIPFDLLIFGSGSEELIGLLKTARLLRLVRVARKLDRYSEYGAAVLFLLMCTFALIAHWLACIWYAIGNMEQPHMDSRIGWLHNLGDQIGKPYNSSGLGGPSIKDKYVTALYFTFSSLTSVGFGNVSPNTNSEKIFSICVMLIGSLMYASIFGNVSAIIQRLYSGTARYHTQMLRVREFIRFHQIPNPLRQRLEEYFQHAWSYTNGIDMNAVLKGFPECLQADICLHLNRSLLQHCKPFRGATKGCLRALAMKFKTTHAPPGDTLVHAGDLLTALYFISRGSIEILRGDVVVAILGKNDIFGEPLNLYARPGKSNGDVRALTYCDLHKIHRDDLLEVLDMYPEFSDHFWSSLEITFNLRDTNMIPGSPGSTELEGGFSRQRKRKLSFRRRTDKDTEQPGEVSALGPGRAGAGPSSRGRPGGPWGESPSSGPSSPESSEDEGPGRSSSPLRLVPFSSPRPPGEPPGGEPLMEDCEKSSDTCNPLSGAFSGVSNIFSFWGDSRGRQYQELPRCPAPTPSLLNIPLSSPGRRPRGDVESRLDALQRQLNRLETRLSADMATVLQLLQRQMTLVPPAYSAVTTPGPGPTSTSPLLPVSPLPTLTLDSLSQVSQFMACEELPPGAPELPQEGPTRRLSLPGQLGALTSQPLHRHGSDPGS
As for `CC(C)c1nnc(SCc2ccc(CSc3nnc(C(C)C)n3N)cc2)n1N`, the “hERG current change (%, negative = inhibition) at 10uM” value is listed as 0.377%.
The figure for `CC(=O)Nc1ccc2c(c1)nc(CCN1CCOCC1)n2C` is 10.4%; for `Cc1cccc(N2CCN(C(=O)c3ccccc3SCC(=O)N3CCCC3)CC2)c1C` it is -34.7%.
Take `CCC1(C(=O)c2ccccc2)C2c3ccccc3OC(=O)C21C(C)=O` (stereo not drawn): the “hERG current change (%, negative = inhibition) at 10uM” value was -4.94%.
The figure for `CCOc1cc(C(=O)Nc2ccc(S(=O)(=O)Nc3cc(C)on3)cc2)cc(OCC)c1OCC` is -0.904%; for `COC(=O)c1ccccc1Oc1cnc2ccccc2n1` it is 18.9%.
Turning to `CC1=C(C(=O)Nc2cccnc2)C(c2ccncc2)n2nnnc2N1` (stereo not drawn), the “hERG current change (%, negative = inhibition) at 10uM” value is given as 0.138%.
Regarding `C=C1CCN(C(Cc2ccccc2)C(=O)OC)S(=O)(=O)c2ccc(F)cc21` (stereo not drawn), the “hERG current change (%, negative = inhibition) at 10uM” value is listed as -3.89%.
The figure for `COC(=O)[C@@H](N)Cc1ccc(O)c(O)c1.Cl` is 5.31%; for `CCCCn1nnnc1SCC(=O)c1ccc(C)c(C)c1` it is -13.3%; for `Cc1ccc(S(=O)(=O)N2[C@@H](c3ccccc3F)C(C(=O)O)=CC[C@H]2c2ccc(C(C)C)cc2)cc1` it is 15%.
Under `CCCCOc1ccc(CN2CCN(CC)CC2)cc1` stands -14.2%.
The figure for `CC1CC(C)CN(C(=O)CN2C(=O)NC(c3ccccc3)(c3ccccc3)C2=O)C1` (stereo not drawn) is -2.74%.
As to `COc1ccc(CN2CN(C3CCCC3)CSC2=S)cc1`, the “hERG current change (%, negative = inhibition) at 10uM” value worked out at 2.66%.
Consider `CC(C)Cc1ccc(C(C)NC(=O)Cc2ccc(S(=O)(=O)N3CCOCC3)s2)cc1` (stereo not drawn), for which the “hERG current change (%, negative = inhibition) at 10uM” value came to 11.1%.
The figure for `Clc1ccc(NCc2nnc3n2CCCCC3)cc1` is -20%.
`CCCCn1c(=O)c(C(=O)Nc2ccsc2C(=O)OC)c(O)c2ccccc21`: the “hERG current change (%, negative = inhibition) at 10uM” value is -2.52%.
Under `CCC(=O)OCC(=O)c1cc(C)n(-c2ccc(Br)cc2)c1C` stands -0.544%.
The figure for `CCSc1nc(=O)n(-c2ccccc2)c(C)c1C(C)=O` is -2.79%.
On to `CCn1c(SCC(=O)OC)nnc1-c1ccc(C)cc1`, for which the “hERG current change (%, negative = inhibition) at 10uM” value was found to be 12.6%.
Under `O=C(O)c1ccc2ncc(NC(=O)c3ccc(F)cc3)c(=O)n2c1` stands 8.11%; under `COc1cccc(/C=N/NC(=O)C(=O)N2CCCCCC2)c1O`, 14.8%.
The figure for `Cc1cc(C)c2c(N)c(C(=O)C(C)(C)C)sc2n1` is 15%; for `Cn1c(=O)[nH]c(=O)c2c1nc(N1CCN(CCO)CC1)n2Cc1ccccc1Cl` it is -6.38%.
Under `O=C(CSc1nc2ccsc2c(=O)n1CC1CCC(C(=O)O)CC1)c1ccc(Cl)cc1` (stereo not drawn) stands 33.9%.
Regarding `CCOc1ccc(NC(=O)c2ccc(NC(=O)COC(=O)Cc3ccccc3)cc2)cc1`, the “hERG current change (%, negative = inhibition) at 10uM” value came out at 20.5%.
The figure for `Cc1ccc(S(=O)(=O)N(C)C)cc1NC(=O)CN1C(=O)NC2(CCCCCCC2)C1=O` is 10.4%.
For the molecule `COc1ccc(CC(=O)Nc2ccc(S(=O)(=O)Nc3nc(C)cc(C)n3)cc2)cc1`, the “hERG current change (%, negative = inhibition) at 10uM” value is -10.9%.
Take `CCOC(=O)c1c(NC(=O)CN2CCN(C(=O)c3ccco3)CC2)sc2c1CCCC2`: the “hERG current change (%, negative = inhibition) at 10uM” value is recorded as -8.72%.
Regarding `COc1ccccc1C(O)c1nccn1C` (stereo not drawn), the “hERG current change (%, negative = inhibition) at 10uM” value is 18.8%.
The figure for `COC(=O)c1sc(NC(=O)COc2cccnc2[N+](=O)[O-])c(C(=O)OC)c1C` is 3.81%.
Under `Cn1c(=O)n(Cc2ccccc2Cl)c2ccccc21` stands 0.502%; under `Cc1ccc(S(=O)(=O)N2CCN(S(=O)(=O)c3cccs3)CC2)cc1`, -9.86%.
`O=C(NCCc1ccccc1)C1c2ccccc2C(=O)N1C1CC1` (stereo not drawn): the “hERG current change (%, negative = inhibition) at 10uM” value is on record as -9.2%.
In the case of `CCCOc1ccccc1-c1nc(SCCC(=O)O)n[nH]1`, the “hERG current change (%, negative = inhibition) at 10uM” value is -1.54%.
Under `CO/N=C(\c1ccccc1)c1cccnc1` stands 9.61%.
In the case of `C=CCCC(=O)N1CCC(n2nccc2NC(=O)CCCc2ccccc2)CC1`, the “hERG current change (%, negative = inhibition) at 10uM” value is recorded as -28.1%.
As to `CCOc1ccc(OCCCC(=O)NNC(=O)c2ccncc2)cc1`, the “hERG current change (%, negative = inhibition) at 10uM” value is on record as -37.2%.
Under `COc1cccc(-n2c(SCc3c(C)noc3C)nnc2-c2cccc(S(=O)(=O)N(C)C)c2)c1` stands -13.3%.
The figure for `Cc1ccccc1NC(=O)c1ccc(CSc2ncccn2)cc1` is -6.41%; for `CCC(C)NC(=O)CO/N=C/c1ccc(C(=O)OC)cc1` (stereo not drawn) it is 3.67%.
Under `O=C(CNc1cccc2ccccc12)c1ccc([N+](=O)[O-])cc1` stands -5.78%; under `CC(CC(=O)Nc1ccc(Cl)c([N+](=O)[O-])c1)c1ccccc1` (stereo not drawn), -7.4%; under `COCCCNc1nc(N)c([N+](=O)[O-])c(Nc2cc(OC)ccc2OC)n1`, 18%.
Take `Cc1ccc2c(c1)C(CCN)C(=O)N2Cc1ccccc1.Cl` (stereo not drawn): the “hERG current change (%, negative = inhibition) at 10uM” value is recorded as -25%.
Regarding `OCC1(Cc2ccc(F)cc2)CCCN(CCc2ccccc2)C1` (stereo not drawn), the “hERG current change (%, negative = inhibition) at 10uM” value was -45.5%.
Under `CCOC(=O)N1CCC(NC(=O)C2CCCN(S(C)(=O)=O)C2)CC1` (stereo not drawn) stands 7.01%; under `COc1cc(-c2c(C#N)c(N)nc3c2CCCC3)ccc1O`, 10.4%.
The figure for `Cc1ccc(C)c(NC(=O)CCC(=O)NNC(=O)c2cccc([N+](=O)[O-])c2)c1` is -13.5%; for `CC(=O)Oc1ccc(-c2cc3c(OC(C)=O)cc(OC(C)=O)cc3oc2=O)cc1` it is 14.1%.
Under `O=C1c2cccnc2-c2ncccc21` stands 6.22%.
Consider `NC(=O)Nc1n[nH]c(-c2ccccc2)n1`, for which the “hERG current change (%, negative = inhibition) at 10uM” value was determined as 19.4%.
As for `Cn1c(=O)c2ccccc2n(CC(=O)Nc2ccc3c(c2)OCCO3)c1=O`, the “hERG current change (%, negative = inhibition) at 10uM” value is on record as 11.1%.
As for `CCN(CC)S(=O)(=O)c1cc(NC(=O)[C@@H](NC(N)=O)C(C)C)ccc1C`, the “hERG current change (%, negative = inhibition) at 10uM” value amounted to 15.5%.
Under `COC(=O)CCCC1=CC2=C(c3ccccc3)C(=O)C(C)(OC(=O)C3CCCC3)C(=O)C2=CN1Cc1ccco1` (stereo not drawn) stands -56.8%; under `COc1cccc(/C=C2\SC(=O)N(CCC(=O)NNC(=O)c3cccc(Cl)c3)C2=O)c1`, 3.25%; under `Cc1ccc(N2OC3C(=O)NC(=O)C3C2c2ccco2)cc1` (stereo not drawn), 7.89%.
